Reference: the RNAGym collection of RNA variant scans (doi:10.1073/pnas.2313332121)
Variants at the background level are over-represented here.

B1: TPR 5TU (parent)
chain: GGAUCUUCUCGAUCUAACAAAAAAGACAAAUCUGCCACAAAGCUUGAGAGCAUCUUCGGAUGCAGAGGCGGCAGCCUUCGGUGGCGCGAUAGCGCCAACGUUCUCAACUAUGACACGCAAAACGCGUGCUCCGUUGAAUGGAGUUUAUCAUG

Variants of: B1
Assay: polymerase ribozyme fitness, log enrichment relative to wild type (log ratio); higher = more active; in vitro selection for triplet polymerase activity
Outline: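 PCR was used to build mutant libraries for each subunit of a heterodimeric triplet polymerase ribozyme, which were then transcribed. A single in vitro selection round, in triplicate, used a frozen incubation at −7 °C and recovered extended constructs by gel excision, streptavidin beads and RT-PCR. Fitness is the logarithm of genotype enrichment relative to wild-type enrichment, averaged over replicates with inverse-variance weights. The logarithm is base 2, and after Illumina sequencing only genotypes with ≥10 input reads and ≥1 read per output were kept.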

Polymerase ribozyme fitness (log ratio), -4.11:
G68A C87U C114A U144C

Polymerase ribozyme fitness (log ratio), -3.93:
G68C C85U

Polymerase ribozyme fitness (log ratio), 0.958:
C69U G126A

Polymerase ribozyme fitness (log ratio), -3.48:
G68A C85U

Polymerase ribozyme fitness (log ratio), -4.16:
G68A G88A C96G C118A G126A

Polymerase ribozyme fitness (log ratio), -1.57:
C69G C103A U144G
C69U A119U

Polymerase ribozyme fitness (log ratio), -3.31:
C69U G71U C87U A89C

Polymerase ribozyme fitness (log ratio), -2.98:
C69A A73G

Polymerase ribozyme fitness (log ratio), -3.59:
C69A G83A G143U

Polymerase ribozyme fitness (log ratio), ≤ -4.2:
G68A A138G
G68A C72A G83U C93G G140A U148C
G68A C76A G86A U102C G124C G152A
G68A C79A C85G C125A C129U
G68A C85U C93U C132U A138G
G68A C87A
G68A C103G G140U
G68A G70U C99G
G68A G86A C87G
G68A U139C
G68C A91C A106U U127A
G68C C93A C125U U146A
G68C C96A A97C C105U U146C C149U A150G U151G
G68C C99G A122C A150C
G68C G80U C105U A107U C129G
G68C U77A A138G
G68C U78A G94A A122G C125G G140C
G68U A73G C79G C85U U102G A113C G124A
G68U A73G U82A G92A U101C C116A A137C
G68U A73U G94A A119U
G68U A91C U104G U134C
G68U C79A U102G A119G
G68U C85A A110G C132G A137G G141C U151G
G68U C85G
G68U C85G C149G
G68U C96G C118G U127C G133U G141A
G68U C103A C114G
G68U G94C C116A A121C
G68U G128U
G68U G141C
C69A A91U
C69A C93U A106C A107C G143A
C69A G83C U101G
C69A G84A U104G C125U G126A A142C
C69G C72U U134A
C69G C75A G86U A91U C149U
C69G C93U U101C C118U
C69G G86C A121C
C69G U78G A113C
C69U A106C U135A G141A
C69U A110U
C69U C76U A97U U109G G112C C125A
C69U C79G C95A
C69U C85A A110G U134G U145C
C69U C85G A97G
C69U G86A U151G
C69U U90A U135A A138G U139A
G70A A73U C114A C118U A138C
G70A A150C
G70A C76A C79G A91U
G70A C79A C87G C99U C105U A142G
G70A C85G G92C C105U G143A
G70A C87U C96A C118G A147C
G70A C93A U111C
G70A C93U C96G U102C U111A
G70A C96A G143A U146G
G70A G74C C125G U144G
G70A G83A G86A
G70A G84A C93G A137U G140U
G70A G88C
G70A G88C C96G U134G
G70C A91C C95U U144C
G70C A113C U144C A147C
G70C C93U

Polymerase ribozyme fitness (log ratio), -2.66:
C69U C85G G141A

Polymerase ribozyme fitness (log ratio), -4.04:
G68A C93U

Polymerase ribozyme fitness (log ratio), -2.41:
C69U G84A A106C

Polymerase ribozyme fitness (log ratio), -2.89:
G70A C87U A106G

Polymerase ribozyme fitness (log ratio), -3.77:
G70A G86U

Polymerase ribozyme fitness (log ratio), -3.05:
C69A C72U

Polymerase ribozyme fitness (log ratio), -3.81:
C69A A91G

Polymerase ribozyme fitness (log ratio), -3.34:
C69A G143U

Polymerase ribozyme fitness (log ratio), -3.43:
C69A C85G A121C

Polymerase ribozyme fitness (log ratio), -1.4:
C69U C118U
